Common to all, as to assay: cell-based or functional assay
Test [1] has as its target T1, hIL-18 receptor (hIL-18Rα and hIL-18Rβ) (human, UniProt Q13478 19-541; O95256 20-599).
T1 sequence (looked up) 1: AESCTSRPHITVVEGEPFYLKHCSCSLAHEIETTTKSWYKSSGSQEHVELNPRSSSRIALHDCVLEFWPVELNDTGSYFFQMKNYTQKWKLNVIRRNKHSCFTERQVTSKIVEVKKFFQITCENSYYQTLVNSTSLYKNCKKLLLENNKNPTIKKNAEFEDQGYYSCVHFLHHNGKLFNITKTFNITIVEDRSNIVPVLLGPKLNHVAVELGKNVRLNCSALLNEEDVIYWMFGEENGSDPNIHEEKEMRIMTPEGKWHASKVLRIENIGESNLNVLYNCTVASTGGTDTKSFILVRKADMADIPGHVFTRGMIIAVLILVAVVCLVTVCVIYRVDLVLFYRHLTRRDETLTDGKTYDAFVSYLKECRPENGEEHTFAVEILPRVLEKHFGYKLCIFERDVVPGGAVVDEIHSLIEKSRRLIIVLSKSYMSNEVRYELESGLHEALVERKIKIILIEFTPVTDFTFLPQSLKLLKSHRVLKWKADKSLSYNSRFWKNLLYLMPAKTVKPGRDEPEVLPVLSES
T1 sequence (looked up) 2: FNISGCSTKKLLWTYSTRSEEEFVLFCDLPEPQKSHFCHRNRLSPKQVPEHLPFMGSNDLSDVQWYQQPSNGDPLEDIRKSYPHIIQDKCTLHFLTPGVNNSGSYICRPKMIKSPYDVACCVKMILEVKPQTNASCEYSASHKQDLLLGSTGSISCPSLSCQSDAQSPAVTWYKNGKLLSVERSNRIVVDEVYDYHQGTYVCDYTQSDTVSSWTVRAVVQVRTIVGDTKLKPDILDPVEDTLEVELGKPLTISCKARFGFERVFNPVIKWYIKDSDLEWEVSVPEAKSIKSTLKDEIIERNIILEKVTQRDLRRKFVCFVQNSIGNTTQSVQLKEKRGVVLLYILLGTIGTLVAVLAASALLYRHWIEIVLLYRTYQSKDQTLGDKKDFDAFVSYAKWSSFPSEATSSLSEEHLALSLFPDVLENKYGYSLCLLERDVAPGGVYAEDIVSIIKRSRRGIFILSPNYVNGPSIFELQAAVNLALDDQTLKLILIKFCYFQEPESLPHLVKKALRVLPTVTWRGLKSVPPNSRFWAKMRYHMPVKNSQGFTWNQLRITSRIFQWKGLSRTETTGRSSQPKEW

The target of test [2] is T2, hIL-18 receptor (hIL-18Rα and hIL-18Rβ) on NFκB-luc/hIL-18RαRβ HEK293 reporter cells (human, UniProt Q13478 19-541; O95256 20-599).
T2 sequence (looked up) 1: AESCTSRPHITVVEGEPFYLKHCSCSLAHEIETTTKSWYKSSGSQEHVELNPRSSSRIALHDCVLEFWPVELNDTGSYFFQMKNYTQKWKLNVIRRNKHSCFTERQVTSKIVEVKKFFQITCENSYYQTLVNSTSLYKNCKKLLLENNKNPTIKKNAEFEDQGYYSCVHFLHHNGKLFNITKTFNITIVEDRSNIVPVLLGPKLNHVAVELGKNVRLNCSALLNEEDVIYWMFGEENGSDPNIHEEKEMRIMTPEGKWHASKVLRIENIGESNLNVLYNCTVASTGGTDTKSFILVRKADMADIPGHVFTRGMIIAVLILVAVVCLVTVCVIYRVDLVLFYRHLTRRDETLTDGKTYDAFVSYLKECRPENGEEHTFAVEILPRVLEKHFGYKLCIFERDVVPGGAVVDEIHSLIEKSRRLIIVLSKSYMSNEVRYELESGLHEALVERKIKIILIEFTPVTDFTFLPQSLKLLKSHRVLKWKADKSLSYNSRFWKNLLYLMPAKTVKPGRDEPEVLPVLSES
T2 sequence (looked up) 2: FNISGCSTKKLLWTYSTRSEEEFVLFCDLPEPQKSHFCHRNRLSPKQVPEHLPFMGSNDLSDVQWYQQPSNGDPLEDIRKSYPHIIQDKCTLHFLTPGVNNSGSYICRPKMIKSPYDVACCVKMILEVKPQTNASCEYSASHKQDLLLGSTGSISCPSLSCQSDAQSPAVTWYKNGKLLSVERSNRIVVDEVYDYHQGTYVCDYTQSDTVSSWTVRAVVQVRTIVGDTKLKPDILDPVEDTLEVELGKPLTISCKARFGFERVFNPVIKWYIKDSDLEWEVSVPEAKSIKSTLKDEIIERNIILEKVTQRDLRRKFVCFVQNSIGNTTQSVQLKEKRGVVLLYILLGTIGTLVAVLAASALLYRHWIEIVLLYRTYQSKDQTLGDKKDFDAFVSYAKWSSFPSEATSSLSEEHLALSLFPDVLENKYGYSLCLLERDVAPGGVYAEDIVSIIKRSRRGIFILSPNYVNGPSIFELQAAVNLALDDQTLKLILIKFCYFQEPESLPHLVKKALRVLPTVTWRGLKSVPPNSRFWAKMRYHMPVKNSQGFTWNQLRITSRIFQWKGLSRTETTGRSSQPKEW

Test [3] deals with T3, hIL-18BP-hFc (human, UniProt O95998 31-194, limits assumed).
T3 sequence (looked up): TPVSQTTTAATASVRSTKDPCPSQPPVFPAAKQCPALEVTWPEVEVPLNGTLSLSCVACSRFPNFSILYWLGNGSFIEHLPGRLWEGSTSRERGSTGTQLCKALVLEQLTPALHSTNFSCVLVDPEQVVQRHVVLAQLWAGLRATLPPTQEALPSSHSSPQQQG

Test [4] addresses T1, hIL-18 receptor (hIL-18Rα and hIL-18Rβ). The source holds these as a separate data set.
In test [5] the target is T3, hIL-18BP-hFc. The source holds these as a separate data set.

Read-outs that look alike come from different tables or passages of the source.

B1: Fc_N297A-MM5-DB6 (Fc fusion)
chain: [letters of human IgG1 Fc with changes not shown]GGGGSGGGGSGSGGGYFGKLGSKLSVIRNLNDQVLFIDQGNRPLFEDMTDSDIRDNAPRTIFIISMYKLSTERGMAVTISVKSEKISTLSCENKIISFKEMNPPDGIKDTKSDIIFFQSSVPGHDNKMQFECSSYEGYFLACEKERDLFKLILKKEDELGDRSIMFTVQNED
For B1, the “EC50 (nM), in vitro IL-18 Receptor Mediated Signaling Assay” value in test [1] was 0.25 nM.

B2: Fc_N297A-M12-DB6 (Fc fusion)
chain: [letters of human IgG1 Fc with changes not shown]GGGGSGGGGSGSGGGYFPKLKSKLSVIRNLNDQVLFIDQGNRPLFEDMTDSDIRDNAPRTIFIISMYKGSGARGMAVTISVKSEKISTLSCENKIISFKEMNPPDTIKDTKSDIIFFQRSVPGHDNKMQFECSSYEGYFLACEKERDLFKLILKKEDELGDRSIMFTVQNED
Turning to B2, in test [1], the “EC50 (nM), in vitro IL-18 Receptor Mediated Signaling Assay” value was 0.06 nM.

B3: M12-SSS-Fc_N297A (Fc fusion)
chain: YFPKLKSKLSVIRNLNDQVLFIDQGNRPLFEDMTDSDSRDNAPRTIFIISMYKGSGARGMAVTISVKSEKISTLSSENKIISFKEMNPPDTIKDTKSDIIFFQRSVPGHDNKMQFESSSYEGYFLACEKERDLFKLILKKEDELGDRSIMFTVQNED[letters of human IgG1 Fc with changes not shown]
B3: in test [2], the “fold decrease in activation of IL-18 receptor-mediated signaling (NFκB luciferase reporter cells)” value is around 7 fold.

B4: WT IL18-DB6-Fc_N297A (Fc fusion)
chain: YFGKLESKLSVIRNLNDQVLFIDQGNRPLFEDMTDSDIRDNAPRTIFIISMYKDSQPRGMAVTISVKSEKISTLSCENKIISFKEMNPPDNIKDTKSDIIFFQRSVPGHDNKMQFECSSYEGYFLACEKERDLFKLILKKEDELGDRSIMFTVQNED[letters of human IgG1 Fc with changes not shown]
Consider B4, for which, in test [1], the “EC50 (nM), in vitro IL-18 Receptor Mediated Signaling Assay” value worked out at 0.011 nM. Moreover, the “EC50 (nM) + 1 µg/ml IL-18 BP-hFc, in vitro IL-18 Receptor Mediated Signaling Assay” value in test [3] came out at 3.13 nM.

B5: M12-DB9-Fc_N297A (Fc fusion)
chain: YFPKLKSKLSVIRNLNDQVLFIDQGNRPLFEDMTDSDIRDNAPRTIFIISMYKGSGARGMAVTISVKIEKISTLSVENKIISFKEMNPPDTIKDTKSDIIFFQRSVPGHDNKMQFESSSYEGYFLAIEKERDLFKLILKKEDELGDRSIMFTVQNED[letters of human IgG1 Fc with changes not shown]
In the case of B5, in test [4], the “EC50 (nM), in vitro IL-18 Receptor Mediated Signaling Assay” value amounted to 0.017 nM. Moreover, the “EC50 (nM) + 1 µg/ml hIL-18BP-hFc, in vitro IL-18 Receptor Mediated Signaling Assay” value (“EC50 (nM) + 1 µg/ml hIL-18BP-hFc” for short) in test [5] stood at 0.025 nM.

B6: M12-DB10-Fc_N297A (Fc fusion)
chain: YFPKLKSKLSVIRNLNDQVLFIDQGNRPLFEDMTDSDIRDNAPRTIFIISMYKGSGARGMAVTISVKLEKISTLSYENKIISFKEMNPPDTIKDTKSDIIFFQRSVPGHDNKMQFESSSYEGYFLACEKERDLFKLILKKEDELGDRSIMFTVQNED[letters of human IgG1 Fc with changes not shown]
Regarding B6, in test [4], the “EC50 (nM), in vitro IL-18 Receptor Mediated Signaling Assay” value came out at 0.012 nM.

B7: MM5-SSS-Fc_N297A (Fc fusion)
chain: YFGKLGSKLSVIRNLNDQVLFIDQGNRPLFEDMTDSDSRDNAPRTIFIISMYKLSTERGMAVTISVKSEKISTLSSENKIISFKEMNPPDGIKDTKSDIIFFQSSVPGHDNKMQFESSSYEGYFLACEKERDLFKLILKKEDELGDRSIMFTVQNED[letters of human IgG1 Fc with changes not shown]
With B7, in test [2], the “fold decrease in activation of IL-18 receptor-mediated signaling (NFκB luciferase reporter cells)” value is around 220 fold.

B8: M12-DB6-Fc_N297A (Fc fusion)
chain: YFPKLKSKLSVIRNLNDQVLFIDQGNRPLFEDMTDSDIRDNAPRTIFIISMYKGSGARGMAVTISVKSEKISTLSCENKIISFKEMNPPDTIKDTKSDIIFFQRSVPGHDNKMQFECSSYEGYFLACEKERDLFKLILKKEDELGDRSIMFTVQNED[letters of human IgG1 Fc with changes not shown]
For B8, the “EC50 (nM), in vitro IL-18 Receptor Mediated Signaling Assay” value in test [4] came out at 0.012 nM. In addition, the “EC50 (nM) + 1 µg/ml hIL-18BP-hFc” value in test [5] is 0.01 nM.

B9: MM5-DB6-Fc_N297A (Fc fusion)
chain: YFGKLGSKLSVIRNLNDQVLFIDQGNRPLFEDMTDSDIRDNAPRTIFIISMYKLSTERGMAVTISVKSEKISTLSCENKIISFKEMNPPDGIKDTKSDIIFFQSSVPGHDNKMQFECSSYEGYFLACEKERDLFKLILKKEDELGDRSIMFTVQNED[letters of human IgG1 Fc with changes not shown]
Regarding B9, in test [1], the “EC50 (nM), in vitro IL-18 Receptor Mediated Signaling Assay” value amounted to 0.13 nM. The “EC50 (nM) + 1 µg/ml IL-18 BP-hFc, in vitro IL-18 Receptor Mediated Signaling Assay” value in test [3] came to 0.12 nM.

B10: M12-DB7-Fc_N297A (Fc fusion)
chain: YFPKLKSKLSVIRNLNDQVLFIDQGNRPLFEDMTDSDVRDNAPRTIFIISMYKGSGARGMAVTISVKIEKISTLSCENKIISFKEMNPPDTIKDTKSDIIFFQRSVPGHDNKMQFECSSYEGYFLAAEKERDLFKLILKKEDELGDRSIMFTVQNED[letters of human IgG1 Fc with changes not shown]
With B10, the “EC50 (nM), in vitro IL-18 Receptor Mediated Signaling Assay” value in test [4] was around 0.007 nM. For the same molecule, the “EC50 (nM) + 1 µg/ml hIL-18BP-hFc” value in test [5] is 0.007 nM.

The values are drawn from patent US20260092093A1 (TJ BIOPHARMA SHANGHAI, published 2026).
